Out of some 310,000 compounds screened, about 18,000 (5.8%) were called active. The inconclusive results got no clear call from the source; some entries with a clear call stand among them for comparison. The call rests on the fitted dose curve; in most records, active means well fitted inhibition curve with a large enough effect; inconclusive means small, poorly fitted or top-dose-only effect, or another doubt; inactive means no such curve, though single readings can be large or run the other way. Potencies of inconclusive entries are left out as doubtful fits.
Test: Primary qHTS for delayed death inhibitors of the malarial parasite plastid, 48 hour incubation
Conditions: P. falciparum luciferase growth in erythrocytes; series mostly up to 28.7 µM
Summary of the method: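 Luminescence readout; reporter = integrated firefly luciferase in P. falciparum. RBC culture at 2% hematocrit, 0.1% parasitemia final, 37 C/5% CO2; decreased signal taken as growth inhibition.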
With `CCOc1ccc(C(=O)NC(=S)N(Cc2ccccc2)Cc2ccccc2)cc1` the Potency was inconclusive [inhibitor, single point].
With `Cc1ccc(S(=O)(=O)c2cc(OC(=O)c3ccco3)ccc2OC(=O)c2ccco2)cc1` the Potency was “inactive”.
For `CCN(C(=O)CSc1nnnn1-c1cc(C)ccc1OC)C1CCS(=O)(=O)C1` (stereo not drawn), the Potency was inconclusive [inhibitor, partial curve, poor fit].
In the case of `O=C(Nc1ccc(Br)cc1)c1cc(Br)cc(Br)c1O`, the Potency is reported as inconclusive [inhibitor, single point].
In the case of `Cc1ccc(NC(=O)c2c(C)noc2-c2snnc2C)cc1`, the Potency is reported as inconclusive [inhibitor, full curve].
For `Cc1nnc(Sc2cc(C(=O)NCc3ccco3)c3ccccc3n2)s1`, the Potency was inconclusive [inhibitor, single point].
For `O=C(NCCc1ccccc1)C(=O)NCC1OCCCN1S(=O)(=O)c1cc(F)ccc1F` (stereo not drawn), the Potency was inconclusive [inhibitor, partial curve].
In the case of `C/C(=N\NC(=O)C1(C)CC1(Br)Br)c1cccc(NC(=O)C2CCC2)c1` (stereo not drawn), the Potency is reported as inconclusive [inhibitor, single point].
In the case of `NS(=O)(=O)c1cc2c(cc1Cl)NC(c1ccccc1OCC(=O)O)NS2(=O)=O` (stereo not drawn), the Potency is reported as “inactive”.
For `CCOc1ccc(-n2nc3c(Cl)nnc(C)c3c2C)cc1`, the Potency was active: 0.329 µM.
In the case of `CCCOc1ccc(-c2c(C(=O)N/N=C(\C)c3ccncc3)nnn2-c2nonc2N)cc1`, the Potency is reported as inconclusive [inhibitor, single point].
In the case of `Cc1csc(NC(=O)CCc2nc3ccccc3s2)n1`, the Potency is reported as “inactive”.
For `O=C(CSc1nnc(CCCN2C(=O)c3cccc4cccc(c34)C2=O)n1-c1ccccc1)N1CCCCC1`, the Potency was active: 11.7 µM.
With `COc1ccc(C2C=C(c3ccccc3)Nc3nc(CCCO)nn32)cc1` (stereo not drawn) the Potency was inconclusive [inhibitor, single point].
In the case of `O=C(CC1C(=O)NCCN1C(=O)c1ccc(Cl)cc1)Nc1ccc(F)cc1` (stereo not drawn), the Potency is reported as inconclusive [inhibitor, single point].
With `CCOc1ccc(C(=O)N/N=C/c2ccc(-c3ccc(S(=O)(=O)Nc4ncccn4)cc3)o2)cc1` the Potency was inconclusive [inhibitor, partial curve, poor fit].
With `O=C(CN(Cc1ccccc1)S(=O)(=O)c1ccccc1)N/N=C/c1ccc2c(c1)OCO2` the Potency was inconclusive [inhibitor, single point].
With `O=C(CC12CC3CC(CC(C3)C1)C2)N1CCN(S(=O)(=O)c2cccs2)CC1` the Potency was inconclusive [inhibitor, single point].

Source: PubChem BioAssay AID504832 (National Center for Advancing Translational Sciences (NCATS), 2011)
Potency means the concentration at half of the fitted maximal effect; tags describe the fitted curve by direction and shape.
